# Source: PMC6919601, “Identification of Plasmodium dipeptidyl aminopeptidase allosteric inhibitors by high throughput screening” (PLoS ONE, 2019)
# The whole screen tested about 110,000 compounds, of which about 230 (0.21%) showed an effect of 50% or more. The list shows a part of the results.
# Target: DPAP1 (Plasmodium falciparum, UniProt Q8IIJ9)
# Test: primary screen, percent inhibition; read by cleavage of a fluorogenic dipeptide substrate; higher = more effect of the substance
# Set-up: species or system P. falciparum D10 trophozoite lysates; single well
# 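Further: 30 min substrate incubation versus DMSO and 10 µM JCP410 controls.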
# Chain of DPAP1 (Q8IIJ9 whole entry, looked up): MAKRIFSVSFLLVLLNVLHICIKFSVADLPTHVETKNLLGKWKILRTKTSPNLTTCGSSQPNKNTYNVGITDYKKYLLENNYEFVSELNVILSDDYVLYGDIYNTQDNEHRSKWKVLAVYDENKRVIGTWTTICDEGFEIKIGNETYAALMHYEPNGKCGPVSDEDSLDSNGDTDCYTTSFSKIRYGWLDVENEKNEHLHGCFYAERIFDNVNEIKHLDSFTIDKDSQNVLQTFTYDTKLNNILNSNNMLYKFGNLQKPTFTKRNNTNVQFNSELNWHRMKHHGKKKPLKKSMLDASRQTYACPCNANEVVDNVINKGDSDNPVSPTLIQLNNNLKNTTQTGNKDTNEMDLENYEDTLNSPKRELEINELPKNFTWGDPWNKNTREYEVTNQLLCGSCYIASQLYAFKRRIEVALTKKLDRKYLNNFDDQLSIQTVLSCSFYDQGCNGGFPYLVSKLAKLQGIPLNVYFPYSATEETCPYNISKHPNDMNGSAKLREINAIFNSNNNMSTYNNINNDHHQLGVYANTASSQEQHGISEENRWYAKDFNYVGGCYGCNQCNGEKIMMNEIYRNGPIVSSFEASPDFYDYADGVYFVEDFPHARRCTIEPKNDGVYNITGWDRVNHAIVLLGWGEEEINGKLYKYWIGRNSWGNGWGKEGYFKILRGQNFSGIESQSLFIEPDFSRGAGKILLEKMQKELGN
row,Structure (SMILES),% Inhibition @ 10 uM [%]
1,Oc1[nH]nc2ccc(Cl)cc12,-1.71
2,CC(C)c1ccc(CN2CCCC(O)C2)cc1 (stereo not drawn),-2.56
3,Cc1ccccc1N1CCN(CCC(=O)Nc2ccc(F)cc2)CC1,-2.82
4,CN1CCCN(Cc2ccc3c(c2)OCO3)CC1,-2.7
5,Cc1ccc(-c2noc(CCC(=O)Nc3cc(C)ccn3)n2)cc1,0.738
6,CCCNC(=O)CN1C(=O)NC2NC(=O)NC21 (stereo not drawn),-7.46
7,Cc1ccc(NC(=O)c2cc3c(C)nn(-c4ccccc4)c3s2)cc1,-5.26
8,O=C(NCCc1cc2ccccc2[nH]1)c1ccc2snnc2c1,-0.0235
9,NC(=O)C1C(=O)NC2=C(CCCC2)C1c1ccccc1 (stereo not drawn),-4.8
10,Cc1ccc(CCNc2ccc3ccccc3c2)cn1,4.22
11,O=C(O)COc1ccccc1C=C1C(=O)c2ccccc2C1=O,1.75
12,COC(=O)CN(C)C1CCS(=O)(=O)C1 (stereo not drawn),-2.15
13,CCOC(=O)c1c(C)[nH]c(C)c1S(=O)(=O)N(C)CC(=O)NCc1ccccc1Cl,0.00978
14,C#CCSc1nc2c(c(=O)n1-c1ccccc1)C1(CCCC1)Cc1ccccc1-2,1.8
15,CCCSC1=C(C#N)C(c2ccccc2Cl)C(C(=O)Nc2ccccc2)=C(C)N1 (stereo not drawn),-3.77
16,CCN1CCN(Cc2ccc3c(c2)c2ccccc2n3CC)CC1,-6.36
17,CCc1ccccc1N(CC(=O)Nc1ccc(OC)cc1)S(C)(=O)=O,2.96
18,COc1ccc(C(=O)N2CCN(c3ccc4nnc(-c5ccc(F)cc5)n4n3)CC2)cc1OC,-8.58
19,COc1cc(CNCCO)cc(Cl)c1OCc1ccc(Cl)cc1Cl,-6.02
20,CCOC(=O)N1CCN(C(=O)C2CCC(CNc3nc(S)nc4ccccc34)CC2)CC1 (stereo not drawn),5.12
21,O=C1N/C(=C/c2ccc(O)c(Cl)c2)C(=O)N1c1ccc(Cl)cc1,-0.297

row,Structure (SMILES),% Inhibition @ 10 uM [%]
1,CCC1SC(NC(=O)C(Cc2ccccc2)N2C(=O)c3ccccc3C2=O)=NC1=O (stereo not drawn),2.56
2,COc1cc(-c2ncnn2-c2ccc(Br)cc2F)cc(OC)c1OC,-1.36
3,COc1ccc(CCNC(=O)CCc2c(C)nc3c(c(C)nn3C(C)(C)C)c2C)c(OC)c1OC,2.93
4,CCCn1cnn2c(=O)cc(C)nc12,-1.64
5,CCOc1cc(/C=C2/SC(=O)NC2=O)cc(Cl)c1OCC,-2.99
6,CC[C@H](NC(=O)[C@@H](NC(=O)c1ccc(-c2ccccc2Cl)cc1)C1CCCCC1)C(=O)c1nnc(-c2ccccc2)o1,1.35
7,O=C(NCCc1ccccc1)/C(=C/c1ccc2c(c1)OCO2)NC(=O)c1cccc(Br)c1,-4.49
8,O=C1/C(=C/c2ccccc2F)C(c2ccccc2)=NN1c1ccc([N+](=O)[O-])cc1,-3.62
9,Cc1ccccc1OCCOc1ccc(Oc2nc(N(C)C)nc(N3CCCC3)n2)nn1,-3.08
10,CCCC(C)C1(CC)C(=O)N=C(Nc2ccccc2OC)NC1=O (stereo not drawn),6.43
11,CCc1ccc(NC(=O)c2cc([N+](=O)[O-])cc([N+](=O)[O-])c2)cc1,0.827
12,CC(NC(=O)C1CCN(S(C)(=O)=O)CC1)c1ccccc1 (stereo not drawn),0.387
13,C=C(C)CSc1nc2c(c(=O)[nH]c(=O)n2C)n1CC(=C)C,-5.14
14,CCN(CCN(C)C)Cc1cccc(Br)c1,-1.78
15,Cc1cc(C)c(NC(=O)c2cnn(C)c2)c(C)c1,-7.9
16,O=C(C1Cc2ccccc2O1)N1CCCCC1 (stereo not drawn),-0.856
17,CN1CCN(C(=O)Cc2ccc(Cl)cc2)CC1,0.51
18,CCn1cc(/C=C2/NC(=O)N(CC(=O)Nc3cccc(C)c3)C2=O)c2ccccc21,7.54
19,CC1=C(C(=O)Nc2cccc(C)c2C)C(c2cccc(Cl)c2)NC(=O)N1 (stereo not drawn),-5.69
20,Cc1nn(CCCC(=O)NC(C)c2ccccc2)c(=O)c2nn(-c3ccccc3)c(C)c12 (stereo not drawn),-5.74
21,CC(C)(C)c1ccc(Oc2nc3ccccn3c(=O)c2/C=C(\C#N)C(=O)N2CCCCC2)cc1,18.4

row,Structure (SMILES),% Inhibition @ 10 uM [%]
1,Cc1ccc(CSc2nc3nccnc3c(=O)n2Cc2ccc(F)cc2)cc1,-4.05
2,COc1ccc(NC(=O)CN(c2ccc(F)cc2)S(=O)(=O)c2ccccc2)c(OC)c1,-12.1
3,CCN(CC)CCN1C(=O)c2ccccc2NC1c1ccc(F)cc1 (stereo not drawn),-10.9
4,O=C1N=C(Nc2ccc(O)cc2)S/C1=C\c1ccccc1,-6.25
5,CC1CCc2c(sc(NC(=O)c3cccnc3Cl)c2C#N)C1 (stereo not drawn),-0.725
6,O=C(Nc1cnn(Cc2ccc(F)cc2)c1)c1ccc(Br)cc1,-5.41
7,Cn1cc(C=C2C(=O)NC(=O)NC2=O)c2ccccc21,1.24
8,CC(=O)Nc1cccc(C2=CC(c3cccs3)n3ncnc3N2)c1 (stereo not drawn),2.01
9,O=C(O)C1CCCCC1C(=O)Nc1nc(-c2ccccc2)cs1 (stereo not drawn),0.408
10,COc1ccc(-c2csc(/C(C#N)=C/c3cccc4ccccc34)n2)cc1,-0.268
11,COC(=O)C(Cc1ccccc1)NC(=O)c1ccc(Cl)cc1 (stereo not drawn),2.94
12,Cc1ccc(/C=C2\C(=O)NC(=S)N(c3ccc(Cl)cc3Cl)C2=O)o1,10.6
13,NC(=O)c1cc(S(=O)(=O)N2CCN(Cc3ccc4c(c3)OCO4)CC2)cs1,0.706
14,O=C(CC1COc2ccccc2O1)NCCc1ccccc1 (stereo not drawn),2.44
15,CCOCCCNC(=O)C(c1ccccc1)N(Cc1cccs1)C(=O)c1ccc2c(c1)OCO2 (stereo not drawn),2.84
16,CCc1ccc(OCC(=O)Nc2ccc(S(=O)(=O)N3CCCCC3)cc2)cc1,2.79
17,COc1ccc(S(=O)(=O)N(CC(=O)Nc2ccc(F)cc2)c2cccc(Cl)c2)cc1,-0.95
18,CCN1CCC(C#N)(NC(=O)[C@H](CC(C)C)NC(=O)OCc2ccccc2)CC1,-6.98
19,CCc1cccc(CC)c1C(O)c1cccnc1 (stereo not drawn),0.343
20,c1nc(N2CCOCC2)c2sc3nc(N4CCOCC4)c4c(c3c2n1)CCCC4,3.73
21,O=C(c1ccco1)N1N=C(c2ccco2)CC1c1ccco1 (stereo not drawn),-4.62
